Data as given in the supplement of paper PMC11880418.
Counter-ions that a name gives are not always drawn. The list shows a part of the results. The data scatter; read single values as rough. Residues, ends and D or L forms follow the SMILES beside them.

tested on: SUM159; assay: ALDHbr (CSC) cell proportion score relative to DMSO vehicle (ratio to DMSO); breast (SUM159) / gastric (MKN45) / pancreatic (PANC1) / colon cancer lines; ALDHbr cells have high ALDH activity and are rich in cancer stem cells (CSC); higher = more CSC (ALDHbr) cells remaining; conditions: 10 µM; 72 h
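Further: High-content imaging of ALDEFLUOR-stained cells with Hoechst-labelled nuclei in 384-well plates, triplicate wells, scored as Z-score against 0.1% DMSO vehicle, negative meaning fewer ALDHbr cells.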

Row | SMILES | ALDHbr
1 | Cc1cccc(C)c1OCC(C)N (stereo not drawn) [Mexiletine hydrochloride] | 1.12
2 | CCC(=O)O[C@]1(C(=O)SCF)[C@H](C)C[C@H]2[C@@H]3C[C@H](F)C4=CC(=O)C=C[C@]4(C)[C@@]3(F)[C@@H](O)C[C@@]21C [Fluticasone propionate] | 1.52
3 | CC(C)(C)NC(=O)[C@@H]1CN(Cc2cccnc2)CCN1C[C@@H](O)C[C@@H](Cc1ccccc1)C(=O)N[C@H]1c2ccccc2C[C@H]1O [Indinavir sulfate] | 1.01
4 | COc1ccc(C(=O)CC(=O)c2ccc(C(C)(C)C)cc2)cc1 [Avobenzone] | 1.03
5 | CC(C)C(=O)Nc1ccc([N+](=O)[O-])c(C(F)(F)F)c1 [Flutamide] | 1.38
6 | CN1CCCN=C1/C=C/c1cccs1 [Pyrantel tartrate] | 1.04
7 | CCN(CC)CCOC(=O)C1(C2CCCCC2)CCCCC1 [Dicyclomine hydrochloride] | 1.33
8 | COc1ncnc(NS(=O)(=O)c2ccc(N)cc2)c1OC [Sulfadoxine] | 1
9 | CC(C)(CO)C(O)C(=O)NCCCO (stereo not drawn) [Panthenol (D)] | 1.03
10 | CC1Cc2ccccc2N1NC(=O)c1ccc(Cl)c(S(N)(=O)=O)c1 (stereo not drawn) [Indapamide] | 1.06
11 | CC(=O)N[C@@H](CC(=O)O)C(=O)N[C@@H](CCC(=O)O)C(=O)O [Spaglumic acid] (Ac-Asp-Glu-OH) | 1.29
12 | COc1ccc(-c2cc(=S)ss2)cc1 [Anethole-trithione] | 1.63
13 | CC(=O)O[C@]1(C(C)=O)CC[C@H]2[C@@H]3C=C(Cl)C4=CC(=O)[C@@H]5C[C@@H]5[C@]4(C)[C@H]3CC[C@@]21C [Cyproterone acetate] | 0.768
